# From paper PMC4336329 (PLoS ONE, 2015)
# Among all 310,000 compounds or so, about 2,200 (0.71%) showed an effect of 50% or more. The effect is printed as a negative number. Some of the results follow.
# Molecular target: human ether-à-go-go-related gene (hERG) potassium channel (human, UniProt Q12809)
# Experiment: primary screen, population patch clamp on CHO cells stably expressing hERG
# human ether-à-go-go-related gene (hERG) potassium channel, sequence (Q12809 whole entry, looked up): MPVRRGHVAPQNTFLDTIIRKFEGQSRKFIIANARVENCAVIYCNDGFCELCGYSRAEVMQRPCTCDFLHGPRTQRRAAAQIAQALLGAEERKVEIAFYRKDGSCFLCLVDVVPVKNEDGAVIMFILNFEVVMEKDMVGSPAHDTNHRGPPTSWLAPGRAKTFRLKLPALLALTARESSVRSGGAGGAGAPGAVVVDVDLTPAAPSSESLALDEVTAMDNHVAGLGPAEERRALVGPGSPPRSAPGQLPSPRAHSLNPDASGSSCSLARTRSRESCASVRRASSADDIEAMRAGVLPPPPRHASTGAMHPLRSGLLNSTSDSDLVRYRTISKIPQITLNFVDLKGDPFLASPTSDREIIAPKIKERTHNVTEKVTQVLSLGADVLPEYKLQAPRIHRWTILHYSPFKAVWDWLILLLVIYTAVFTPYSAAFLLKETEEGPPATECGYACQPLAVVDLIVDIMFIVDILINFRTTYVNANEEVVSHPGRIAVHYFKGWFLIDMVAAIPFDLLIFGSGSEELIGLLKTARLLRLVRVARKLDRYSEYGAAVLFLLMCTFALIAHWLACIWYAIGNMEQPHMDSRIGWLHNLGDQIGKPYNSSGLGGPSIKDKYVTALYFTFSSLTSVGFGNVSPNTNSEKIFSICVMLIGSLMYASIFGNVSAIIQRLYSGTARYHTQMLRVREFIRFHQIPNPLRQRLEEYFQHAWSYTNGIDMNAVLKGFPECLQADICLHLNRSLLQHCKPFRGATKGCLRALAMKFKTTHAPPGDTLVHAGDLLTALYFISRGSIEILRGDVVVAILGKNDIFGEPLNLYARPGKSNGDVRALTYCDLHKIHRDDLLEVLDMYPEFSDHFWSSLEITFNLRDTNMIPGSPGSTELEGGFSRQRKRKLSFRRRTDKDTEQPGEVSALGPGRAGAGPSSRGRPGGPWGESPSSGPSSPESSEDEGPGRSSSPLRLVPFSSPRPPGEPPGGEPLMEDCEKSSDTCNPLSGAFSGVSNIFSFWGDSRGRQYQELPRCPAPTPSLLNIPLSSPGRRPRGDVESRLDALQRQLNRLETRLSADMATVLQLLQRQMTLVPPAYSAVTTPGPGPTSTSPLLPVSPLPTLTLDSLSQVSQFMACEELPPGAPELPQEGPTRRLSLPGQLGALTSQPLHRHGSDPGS
row,SMILES,"hERG current change (%, negative = inhibition) at 1uM [%]"
1,O=[N+]([O-])c1cc(S(=O)(=O)Nc2cccc(Cl)c2)ccc1N=Nc1c(O)[nH]c2ccccc12,1.82
2,CCOc1ccc(C(=O)COC(=O)c2cc([N+](=O)[O-])ccc2N2CCOCC2)cc1,6.02
3,COc1ccccc1N1CCN(C(=O)c2cc(-c3ccccc3O)on2)CC1,8.86
4,O=C(c1ccccc1F)N1CCN(S(=O)(=O)c2ccc(Br)cc2)CC1,-5.95
5,Cn1c(=O)c2cc(S(=O)(=O)N3CCOCC3)ccc2n(C)c1=O,-10.2
6,COc1ccc(-c2noc(-c3cccc(Cl)c3)n2)cc1OC,12.7
7,CCCCOC(=O)c1ccc(NC(=S)NC(=O)c2c(Cl)cnn2CC)cc1,4.3
8,Cn1c(=O)c2c(nc(N3CCCCC3)n2CC(O)COc2ccccc2)n(C)c1=O (stereo not drawn),5.96
9,O=C(O)C1CC=CCC1C(=O)NCCCCc1ccccc1 (stereo not drawn),13.3
10,COc1cc(C2C(C(=O)c3cccs3)=C(O)C(=O)N2CCN2CCOCC2)ccc1OCCC(C)C (stereo not drawn),16.7
11,COc1cccc(C(=O)N(CN2CCCC2=O)c2cc(C)on2)c1,10
12,Cc1ccc2c(c1)cc(CN(Cc1ccco1)C(=O)N1CCOCC1)c1nnnn12,-5.64
13,CCCCn1c(O)c(C(CC)=Nc2ccc(C(=O)O)cc2)c(=O)[nH]c1=O,15.7
14,Cc1nc(N2CCN(S(=O)(=O)c3ccccc3)CC2)c2cc(-c3ccccc3)sc2n1,2.54
15,O=C(NCCN1CCN(Cc2ccccc2Cl)CC1)Nc1ccccc1,-26.3
16,O=C(N/N=C/c1sc(N2CCCCC2)nc1-c1cccs1)C1CC1,6.36
17,O=S(=O)(c1ccccc1)N1CCN(c2ncccn2)CC1,-0.261
18,O=C(NCc1ccccc1)N1CCC(CO)(CCc2ccccc2)CC1,4.29
19,COc1ccccc1NS(=O)(=O)c1cccc(C(=O)NN=C2CCCC2)c1,4.64

row,SMILES,"hERG current change (%, negative = inhibition) at 1uM [%]"
1,COc1ccc(N=c2scc(C)n2CCCN2CCCC2=O)cc1,9.22
2,CC(C)(C)NC(=O)COC(=O)c1ccccc1C(=O)c1ccccc1,16.8
3,Cn1cc(CN2CCCC(CO)(Cc3ccccc3)C2)cn1 (stereo not drawn),3.23
4,Cc1cc(NC(=O)NC(=O)c2ccc(F)cc2F)n[nH]1,13.8
5,O=C(Cn1ncnn1)OCc1ccccc1Cl,11.3
6,CCOc1ccc(S(=O)(=O)N2CCC(C(=O)N3CCCC3)CC2)cc1C,14
7,O=C(COC(=O)c1cccc(C(F)(F)F)c1)NCc1ccccc1,7.71
8,CN(C)C1=NC[C@H](Cc2ccccc2)N1CCCCc1ccccc1,-42.2
9,Cc1ccc(N2CSC3=C(C#N)C(c4cccs4)CC(=O)N3C2)cc1 (stereo not drawn),9.65
10,COc1cc2c3c(c1)C(C)=CC(C)(C)N3C(=O)C2=O,8.81
11,CCOC(=O)C1=C(C)NC2=C(C(=O)CC(C)(C)C2)C1c1ccc2c(c1)CCCN2C (stereo not drawn),2.35
12,O=C(C1CC1)N1CCN(C(c2ccccc2)c2ccccc2)CC1,14.9
13,CCN1C(=O)c2cccc3c(S(=O)(=O)N(C(=O)c4cccnc4)c4ccc(OC)cc4)ccc1c23,9.14
14,Cc1nc(N2CCN(c3ccccc3)CC2)[nH]c(=O)c1CCC(C)C,14.2
15,CCCNC(=S)N1CCC(C(=O)c2ccc3c(c2)OCCO3)CC1,6.67
16,CCOC(=O)c1sc(NC(=O)CSc2nc(C)cc(C(F)(F)F)n2)c(C#N)c1C,2.77
17,Cc1ccc(NC(=O)Cn2c(CCC(=O)O)ccc2-c2cccs2)cc1,-4.07
18,CCOc1ccccc1NS(=O)(=O)N(C)C,-5.77
19,CC(=O)c1cccc(NC(=O)CSc2ncc(C(=O)Nc3ccccc3)c(=O)n2C)c1,-6.55

row,SMILES,"hERG current change (%, negative = inhibition) at 1uM [%]"
1,CN(C)c1ccc2c3c(ccc(N(C)C)c13)COC2,-3.29
2,COc1cc(/C=N/NC(=O)CSCc2ccc([N+](=O)[O-])cc2)cc(OC)c1OC,1.15
3,C=CCNC(=O)c1ccc2c3n(nc2c1)-c1ccccc1CO3,-10
4,CCOC(=O)c1nc2nc(C)cc(=O)n2[nH]1,7.02
5,O=C(Nc1nccs1)c1ccc(Cl)nc1,15.1
6,NC(=O)C1CCN(Cc2nc3cc(C(F)(F)F)ccc3c(=O)[nH]2)CC1,10.2
7,O=C1CC(SCc2nc3ccccc3[nH]2)C(=O)N1c1cccc(F)c1 (stereo not drawn),9.7
8,COc1ccc(-c2cn(/N=C/c3ccc(Cl)cc3Cl)c(N)n2)cc1,5.2
9,N#Cc1nc(Cc2ccccc2)oc1N1CCC(C(N)=O)CC1,1.5
10,CC1=C(C(=O)Nc2ccccc2F)C(c2ccsc2)C2=C(CC(C)(C)CC2=O)N1 (stereo not drawn),1.33
11,N#Cc1cn(CC(=O)NCc2cccnc2)c2ccccc12,1.54
12,N#C/C(=C\c1cccnc1)C(=O)Nc1cccc(Cl)c1,4.85
13,COc1ccccc1CN(Cc1ccco1)S(=O)(=O)c1ccc(-n2cnnn2)c(OC)c1,15
14,Cc1ccc2c(C)c(C(=O)N(C)CCC3CCCCO3)oc2c1C (stereo not drawn),6.25
15,COc1ccc2[nH]c(=O)c(CN(C(=O)c3cccnc3)c3ccc(C)cc3)cc2c1,4.82
16,Cc1cc(C)nc(N2CCCC(C(=O)Nc3ccc4c(c3)OCO4)C2)n1 (stereo not drawn),15.9
17,O=C(CSc1nnc(-c2ccncc2)o1)NC1CCCCC1,1.09
18,COc1ccc2c(c1)CCc1c(C(=O)N3CCCc4ccccc43)noc1-2,7.61
19,CCOc1ccc(-c2c(C(=O)N/N=C/c3ccc(C)cc3)nnn2-c2nonc2N)cc1,5.28
